Data published in the supplement of paper PMC11741623.
Some of the results follow. Interaction screen of human proteins with wild-type SARS-CoV-2 proteins by split-DHFR complementation in yeast, 1 µg/mL methotrexate. Value = fitness of the pair (three or more lineages) minus that of the viral protein without a human partner, on a scale set by negative (0) and fused positive (1) controls, mean of up to three cultures; higher = more likely to interact. Active = false discovery rate below 0.05 (one-sided t-test) in at least one culture. Nearly all pairs are not hits, and differences among them are mostly noise (correlation between cultures about 0.3); most hits were seen in one culture only. Human sequences are the Swiss-Prot entries looked up by gene name; the clone may be another isoform. NSP2 values were corrected by the authors for a growth advantage. Listed are human proteins with a hit and a random twelfth of the others.

Experiments:
Test in all cases: yeast fitness gain over the viral ORF with no human partner (scaled fitness); higher = more likely to interact
SARS-CoV-2 M = target: SARS-CoV-2 M
Experimental: (§1)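 Split mouse DHFR complementation in pooled diploid yeast: human ORFeome clones carry one fragment and viral ORFs the other; barcoded lineages compete in 1 µg/mL methotrexate and fitness is read by barcode sequencing in up to three cultures.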

SARS-CoV-2 NSP1 = target: SARS-CoV-2 NSP1
Experimental: as §1

SARS-CoV-2 NSP10 = target: SARS-CoV-2 NSP10
Experimental: as §1

SARS-CoV-2 NSP12 = target: SARS-CoV-2 NSP12
Experimental: as §1

SARS-CoV-2 NSP13 = target: SARS-CoV-2 NSP13
Experimental: as §1

SARS-CoV-2 NSP14 = target: SARS-CoV-2 NSP14
Experimental: as §1

SARS-CoV-2 NSP15 = target: SARS-CoV-2 NSP15
Experimental: as §1

SARS-CoV-2 NSP16 = target: SARS-CoV-2 NSP16
Experimental: as §1

SARS-CoV-2 NSP2 = target: SARS-CoV-2 NSP2
Experimental: as §1

SARS-CoV-2 NSP5 = target: SARS-CoV-2 NSP5
Experimental: as §1

SARS-CoV-2 NSP6 = target: SARS-CoV-2 NSP6
Experimental: as §1

SARS-CoV-2 NSP7 = target: SARS-CoV-2 NSP7
Experimental: as §1

SARS-CoV-2 NSP8 = target: SARS-CoV-2 NSP8
Experimental: as §1

SARS-CoV-2 ORF10 = target: SARS-CoV-2 ORF10
Experimental: as §1

SARS-CoV-2 ORF3B = target: SARS-CoV-2 ORF3B
Experimental: as §1

SARS-CoV-2 ORF6 = target: SARS-CoV-2 ORF6
Experimental: as §1

SARS-CoV-2 ORF7A = target: SARS-CoV-2 ORF7A
Experimental: as §1

SARS-CoV-2 ORF7B = target: SARS-CoV-2 ORF7B
Experimental: as §1

SARS-CoV-2 ORF8 = target: SARS-CoV-2 ORF8
Experimental: as §1

SARS-CoV-2 ORF9B = target: SARS-CoV-2 ORF9B
Experimental: as §1

SARS-CoV-2 S = target: SARS-CoV-2 S
Experimental: as §1

SARS-CoV-2 NSP9 = target: SARS-CoV-2 NSP9
Experimental: as §1

[1] = target: SARS-CoV-2 ORF9Bwu (the 73-codon ORF)
Experimental: as §1

SARS-CoV-2 N = target: SARS-CoV-2 N
Experimental: as §1

SARS-CoV-2 NSP4 = target: SARS-CoV-2 NSP4
Experimental: as §1

SARS-CoV-2 ORF3A = target: SARS-CoV-2 ORF3A
Experimental: as §1

Measured: yeast fitness gain

B1: XRCC2, O43543 (protein)
chain: MCSAFHRAESGTELLARLEGRSSLKEIEPNLFADEDSPVHGDILEFHGPEGTGKTEMLYHLTARCILPKSEGGLEVEVLFIDTDYHFDMLRLVTILEHRLSQSSEEIIKYCLGRFFLVYCSSSTHLLLTLYSLESMFCSHPSLCLLILDSLSAFYWIDRVNGGESVNLQESTLRKCSQCLEKLVNDYRLVLFATTQTIMQKASSSSEEPSHASRRLCDVDIDYRPYLCKAWQQLVKHRMFFSKQDDSQSSNQFSLVSRCLKSNSLKKHFFIIGESGVEFC
inactive: SARS-CoV-2 M -0.128 | SARS-CoV-2 NSP1 = 0.098 | SARS-CoV-2 NSP10 = -0.00151 | SARS-CoV-2 NSP12 = -0.17 | SARS-CoV-2 NSP13 = -0.0241 | SARS-CoV-2 NSP14 = 0.00472 | SARS-CoV-2 NSP15 = -0.0878 | SARS-CoV-2 NSP16 = 0.108 | SARS-CoV-2 NSP2 = -0.214 | SARS-CoV-2 NSP5 = 0.0116 | SARS-CoV-2 NSP6 = 0.0535 | SARS-CoV-2 NSP7 = -0.0729 | SARS-CoV-2 NSP8 = 0.0783 | SARS-CoV-2 ORF10 = 0.0642 | SARS-CoV-2 ORF3B 0.00722 | SARS-CoV-2 ORF6 = 0.0179 | SARS-CoV-2 ORF7A -0.112 | SARS-CoV-2 ORF7B 0.103 | SARS-CoV-2 ORF8 = -0.00505 | SARS-CoV-2 ORF9B -0.0447 | SARS-CoV-2 S -0.0328

B2: CCL26, Q9Y258 (protein)
chain: MMGLSLASAVLLASLLSLHLGTATRGSDISKTCCFQYSHKPLPWTWVRSYEFTSNSCSQRAVIFTTKRGKKVCTHPRKKWVQKYISLLKTPKQL
inactive: SARS-CoV-2 M 0.173 | SARS-CoV-2 NSP10 = 0.0714 | SARS-CoV-2 NSP12 = 0.0073 | SARS-CoV-2 NSP13 = -0.0681 | SARS-CoV-2 NSP16 = 0.0499 | SARS-CoV-2 NSP2 = 0.0346 | SARS-CoV-2 NSP5 = -0.0584 | SARS-CoV-2 NSP6 = -0.000613 | SARS-CoV-2 NSP7 = -0.0454 | SARS-CoV-2 NSP8 = -0.0214 | SARS-CoV-2 NSP9 = 0.0261 | SARS-CoV-2 ORF10 = 0.0435 | SARS-CoV-2 ORF3B -0.0935 | SARS-CoV-2 ORF6 = 0.00459 | SARS-CoV-2 ORF7A -0.0731 | SARS-CoV-2 ORF7B 0.0474 | SARS-CoV-2 ORF8 = -0.0453 | SARS-CoV-2 ORF9B 0.0192 | [1] -0.147 | SARS-CoV-2 S -0.0854

B3: STK11, Q15831 (protein)
chain: MEVVDPQQLGMFTEGELMSVGMDTFIHRIDSTEVIYQPRRKRAKLIGKYLMGDLLGEGSYGKVKEVLDSETLCRRAVKILKKKKLRRIPNGEANVKKEIQLLRRLRHKNVIQLVDVLYNEEKQKMYMVMEYCVCGMQEMLDSVPEKRFPVCQAHGYFCQLIDGLEYLHSQGIVHKDIKPGNLLLTTGGTLKISDLGVAEALHPFAADDTCRTSQGSPAFQPPEIANGLDTFSGFKVDIWSAGVTLYNITTGLYPFEGDNIYKLFENIGKGSYAIPGDCGPPLSDLLKGMLEYEPAKRFSIRQIRQHSWFRKKHPPAEAPVPIPPSPDTKDRWRSMTVVPYLEDLHGADEDEDLFDIEDDIIYTQDFTVPGQVPEEEASHNGQRRGLPKAVCMNGTEAAQLSTKSRAEGRAPNPARKACSASSKIRRLSACKQQ
inactive: SARS-CoV-2 M -0.093 | SARS-CoV-2 N 0.0335 | SARS-CoV-2 NSP1 = -0.0406 | SARS-CoV-2 NSP10 = -0.0835 | SARS-CoV-2 NSP12 = -0.0424 | SARS-CoV-2 NSP13 = -0.00495 | SARS-CoV-2 NSP14 = -0.0261 | SARS-CoV-2 NSP15 = -0.0329 | SARS-CoV-2 NSP2 = -0.0173 | SARS-CoV-2 NSP4 = 0.0758 | SARS-CoV-2 NSP5 = -0.0272 | SARS-CoV-2 NSP6 = 0.101 | SARS-CoV-2 NSP7 = 0.0097 | SARS-CoV-2 NSP8 = -0.11 | SARS-CoV-2 NSP9 = -0.0264 | SARS-CoV-2 ORF10 = 0.189 | SARS-CoV-2 ORF3A -0.0652 | SARS-CoV-2 ORF3B -0.13 | SARS-CoV-2 ORF6 = 0.0288 | SARS-CoV-2 ORF7A 0.0171 | SARS-CoV-2 ORF7B 0.0127 | SARS-CoV-2 ORF8 = 0.0106 | SARS-CoV-2 ORF9B -0.0599 | [1] 0.0929 | SARS-CoV-2 S -0.0563

B4: TINAG, Q9UJW2 (protein)
chain: MWTGYKILIFSYLTTEIWMEKQYLSQREVDLEAYFTRNHTVLQGTRFKRAIFQGQYCRNFGCCEDRDDGCVTEFYAANALCYCDKFCDRENSDCCPDYKSFCREEKEWPPHTQPWYPEGCFKDGQHYEEGSVIKENCNSCTCSGQQWKCSQHVCLVRSELIEQVNKGDYGWTAQNYSQFWGMTLEDGFKFRLGTLPPSPMLLSMNEMTASLPATTDLPEFFVASYKWPGWTHGPLDQKNCAASWAFSTASVAADRIAIQSKGRYTANLSPQNLISCCAKNRHGCNSGSIDRAWWYLRKRGLVSHACYPLFKDQNATNNGCAMASRSDGRGKRHATKPCPNNVEKSNRIYQCSPPYRVSSNETEIMKEIMQNGPVQAIMQVREDFFHYKTGIYRHVTSTNKESEKYRKLQTHAVKLTGWGTLRGAQGQKEKFWIAANSWGKSWGENGYFRILRGVNESDIEKLIIAAWGQLTSSDEP
inactive: SARS-CoV-2 M -0.0491 | SARS-CoV-2 NSP1 = 0.0276 | SARS-CoV-2 NSP10 = 0.0763 | SARS-CoV-2 NSP12 = -0.04 | SARS-CoV-2 NSP13 = -0.0108 | SARS-CoV-2 NSP14 = -0.0445 | SARS-CoV-2 NSP15 = 0.0131 | SARS-CoV-2 NSP16 = -0.0819 | SARS-CoV-2 NSP2 = -0.0758 | SARS-CoV-2 NSP4 = 0.0344 | SARS-CoV-2 NSP5 = -0.0419 | SARS-CoV-2 NSP6 = -0.0676 | SARS-CoV-2 NSP7 = 0.00038 | SARS-CoV-2 NSP8 = 0.102 | SARS-CoV-2 NSP9 = -0.0341 | SARS-CoV-2 ORF10 = 0.0779 | SARS-CoV-2 ORF3B 0.028 | SARS-CoV-2 ORF6 = -0.0122 | SARS-CoV-2 ORF7A -0.0112 | SARS-CoV-2 ORF7B 0.0168 | SARS-CoV-2 ORF8 = 0.012 | SARS-CoV-2 ORF9B 0.03 | [1] -0.113 | SARS-CoV-2 S -0.111
